Source: publication PMC12136788
Some of the results follow.

T1: UNK ZnF1-3 (human, UniProt Q9C0B0 31-174)
T1 sequence: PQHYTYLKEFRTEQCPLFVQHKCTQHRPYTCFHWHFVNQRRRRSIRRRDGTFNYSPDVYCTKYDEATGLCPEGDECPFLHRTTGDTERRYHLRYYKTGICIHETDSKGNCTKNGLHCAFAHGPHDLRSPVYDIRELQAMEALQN

B1: 13375859_13375979_419_3pUTR_ENSG00000133794_ENST00000403290|human|control|control (ssRNA)
RNA: GGGAGUUCUACAGUCCGACGAUCUGCCUUUCCGUUUGCGGUUGCAAUCCACACCACUGGUACCAAGAGAGCUGGAAAGCAGGUCGGUGGGGCCCGGGGACAUGAAAUCACUGAUGGUUGAAGAAAUGUCCAUUCUCUGGUCUGCAACAGAGGAUUGAGCAUCA
B2: chr14:76907486:76907487:+_ENSMUSG00000022010_ENSMUST00000022587|mus_hu|FALSE|FALSE (ssRNA)
RNA: GGGAGUUCUACAGUCCGACGAUCAGUGACACCUUACAAUUGUGUAGAGAACAUGCACAGAAACAUAUGCAUAUAACUACUAUACAGGUGAUAUGCAGAAACCCCUACUGGGAAAUCCAUUUCAUUAGUUAGAACUGAGCAUUUCAACAGAGGAUUGAGCAUCA
B3: chr12:105553856:105553857:+_ENSG00000136051_ENST00000332180|hu_mus|FALSE|FALSE (ssRNA)
RNA: GGGAGUUCUACAGUCCGACGAUCAAUGAUAUAGAAAUUUCGGAGAUGUAUAUUCUUUGGCCUUCGAAAUUCUGGAGCAAAAACAUCUACAAGCAUUUUGAAAUAUUCUGUACCUUCAGCAGAGUUCCGUGUAUGAUCACUGAGCAACAGAGGAUUGAGCAUCA
B4: chr19:24183184:24183185:-_ENSMUSG00000024812_ENSMUST00000099558|mus_hu|FALSE|FALSE (ssRNA)
RNA: GGGAGUUCUACAGUCCGACGAUCUGUAGCUGUAAAAAGGUGUGCACACGUUUUUUUAAGCUUGUUGGCUUGAUCAAAUAACUUUCGAGAACUUUUGUUGGACGUUGGAUUUAACCUUUGUCUCAUGGUUUUGACACCUUGUCUCAACAGAGGAUUGAGCAUCA
B5: chr8:133807003:133807004:+_ENSG00000129292_ENST00000220847|hu_hu|FALSE|FALSE (ssRNA)
RNA: GGGAGUUCUACAGUCCGACGAUCCUUUGUUAAUUGCUUCAAUCUUGGCAGGGUAAUAGCGACAGUCUGUCCAACGAGCCAGAACUUCUUCUCCAGCUUUAAAAUCAAAGAAAUCUUCCUCAUCUUUUAGCCCUUCUUUUCUUACAACAGAGGAUUGAGCAUCA
B6: chr9:95013113:95013114:-_ENSG00000196305_ENST00000443024|hu_hu|hu_hu_hu_mus_False|28_108 (ssRNA)
RNA: GGGAGUUCUACAGUCCGACGAUCCUCAGUGAGAAAAGGCGUGUAAGGGGCCAUCAGUCUGCACAGAGAAAGCAGGACACUGAACAGUGUCUCCAGAGCCAUGACACAAUCCUCCAUCCCACUCUCACCCUUUAACCUCCUCCUCAACAGAGGAUUGAGCAUCA
B7: chr17:85393198:85393199:+_ENSMUSG00000061130_ENSMUST00000080217|mus_hu|FALSE|FALSE (ssRNA)
RNA: GGGAGUUCUACAGUCCGACGAUCAUGUGUUGAGCAGUAAUUUGCCACUCGGGAUCCAGCAUGACCAUCAUAAACUGCAAAAAAUGACCAGUCUUCCAAGCCGUGAGGAAUACCUACAACAGCUGUGUGUGCAUCUUCCAUUUCCAACAGAGGAUUGAGCAUCA
B8: chr19:8913615:8913616:-_ENSMUSG00000071658_ENSMUST00000096259|mus_hu|mus_mus_mus_hu_False|48_108 (ssRNA)
RNA: GGGAGUUCUACAGUCCGACGAUCAGGGGGGCACCAACUUCUGCCUGAAAUGGGUGCCCCACCCAGUAGGGAGUUGCAGCUGAAAGUAUCCGUAGCAGAAGCAGUGACUAUACGAAAGGAGGCCCCUGGGGAGGGCCAGGCCAGCAACAGAGGAUUGAGCAUCA
B9: 225965591_225965711_113_CDS_ENSG00000143742_ENST00000366839|human|control|control (ssRNA)
RNA: GGGAGUUCUACAGUCCGACGAUCCAUAGGGUCAGCGAGGUAAAGCUUCUCGGCAGCGCGGCUGAACUCCUCCCAGGUCUGGUACUGCGGCAUCGUGGCCUAGAGUGGAAAAGUAAAGAGAAGCAAGGCCUCAGAACCCGGCCCCAACAGAGGAUUGAGCAUCA
B10: chr9:74900086:74900087:+_ENSMUSG00000007656_ENSMUST00000169492|mus_mus|FALSE|FALSE (ssRNA)
RNA: GGGAGUUCUACAGUCCGACGAUCUUGUCCCAAGUGAGGAUACCUUGCCUUUAACUUUGCUUCUUCAGCUUUCUCUGGACUAGUUACUUUAUCUUCCAUUUCCUUUUGCUCCUCCGCAGACGCUGCCUCGGGGACUUCCGCGGACAACAGAGGAUUGAGCAUCA
B11: 90161196_90161316_2667_3pUTR_ENSMUSG00000044783_ENSMUST00000054674|mouse|control|control (ssRNA)
RNA: GGGAGUUCUACAGUCCGACGAUCGUCAGCCCAAGCUAUGCAAGACUGCCUCAAAAACCAAAUAAAACAUCUCCCCCACCCCCACAACCAGCGCUCUUAAGACUAAGCCGAGAGGUGUGAACAGCGUUCUGUCAUGACUCAACUCAACAGAGGAUUGAGCAUCA
B12: 56504298_56504502_1345_CDS_ENSG00000151914_ENST00000244364|human|control|control (ssRNA)
RNA: GGGAGUUCUACAGUCCGACGAUCAUAAGCAACUUCCUCCUCUUCUUUUUCAUUCAACCAAAUAAGUUCAUUAGUCGCACGACUUACAAAAUUAUGGAGUGUAUCAAGGUGCCGUUCUUGAUUCCUGGAUGUAUUCAAGAGUUUCAACAGAGGAUUGAGCAUCA
B13: chr1:89346535:89346536:+_ENSMUSG00000048000_ENSMUST00000174671|mus_mus|FALSE|FALSE (ssRNA)
RNA: GGGAGUUCUACAGUCCGACGAUCAAGAUGCCUCUUAAACGAGACAAAUUUUCACAUAAGGGCCCAAAACAAACUGGUCCUAGUCCUUGAAGUAAAAAUAUUUAUGGGAGGAGGGGAGAUCAGUUUUUAUAUGAAAGGAAAAUUCAACAGAGGAUUGAGCAUCA
B14: chr11:47660561:47660562:-_ENSG00000109919_ENST00000530428|hu_mus|motif|central (ssRNA)
RNA: GGGAGUUCUACAGUCCGACGAUCAGCAUAGCAAAAGAGGCCAGGAAGCUGACAUACUUGUCGCCCAAAAAUAUUUCGUCCGGUUGUUGGAGGAAGAGGCUCAUAUCCCACCUGGAUGAGCACUUUCACGUACAUGAGCGGCUGCAACAGAGGAUUGAGCAUCA

Biological target: T1, UNK ZnF1-3
Assay: nsRBNS (natural sequence RNA bind-n-seq); RBNS binding buffer (assumed for nsRBNS): 25 mM Tris pH 7.5, 150 mM KCl, 3 mM MgCl2, 0.01% Triton X-100, 500 ug/ml BSA, 20 U/ml SUPERase-In, 4 C; UNK is unkempt and MSI1 is Musashi-1; names of the RNAs are library labels; protein concentration not given here; high values mean tight binding

| Binder | binding signal |
| --- | --- |
| B1 | 1.08 enrichment R |
| B2 | 1.12 enrichment R |
| B3 | 0.56 enrichment R |
| B4 | 0.72 enrichment R |
| B5 | 0.753 enrichment R |
| B6 | 1.3 enrichment R |
| B7 | 1.39 enrichment R |
| B8 | 1.08 enrichment R |
| B9 | 0.889 enrichment R |
| B10 | 0.364 enrichment R |
| B11 | 1.54 enrichment R |
| B12 | 1.01 enrichment R |
| B13 | 1.04 enrichment R |
| B14 | 1.75 enrichment R |
